Test results taken from PubChem BioAssay AID686971 (National Center for Advancing Translational Sciences (NCATS), 2013).
Hit rate of the full screen: of about 360,000 compounds, about 7,500 (2.1%) were called active. Inconclusive results, whose numbers are uncertain, are shown with a selection of clear calls. Calls come from the whole dose curve; as a rule, active = well fitted cell-killing curve with a large enough effect; inconclusive = small, poorly fitted or top-dose-only effect, or effect the other way, or another doubt; inactive = no such curve, though single readings can be large or run the other way. No potency is given beside an inconclusive call; the fits are too rough.

Test: qHTS for induction of synthetic lethality in tumor cells producing 2HG: qHTS for the HT-1080-IDH1KD cell line;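 for activity, negative = toxicity: 0% = DMSO wells and -100% = cell-free medium wells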
Conditions: HT-1080 IDH1 knockdown viability, ATP luminescence, 48 h; activity, negative = toxicity: at 46.1 µM (top of the series) unless noted
Method in brief: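 % activity derives from luminescence (CellTiter-Glo), normalised to DMSO and no-cell wells. HT-1080-IDH1KD cells, 750/well, had 48 h compound exposure at 37 °C.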
Potency is the fitted concentration of half-maximal effect; tags give direction and shape of the fitted curve.

Compound	Potency	activity, negative = toxicity
Cc1c(Cl)cccc1NC(=O)Cc1cccs1	inactive	–
COc1cc2c(C#N)c(N3CCN(c4ccccc4OC)CC3)nc(N)c2c(N)n1	inconclusive [cytotoxic, single point]	–
N#CCCn1nc(-c2ccccc2)cc1-n1c(C(F)(F)F)nc2ccccc21	inconclusive [cytotoxic, single point]	–
COc1cc(OC)cc(C(=O)N2CCC(C(=O)NCCc3ccccc3)CC2)c1	inactive	–
Cc1ccc(O)c(CNc2cnc3ccccc3c2)c1	–	inconclusive: -33.5% [cytotoxic]
COc1ccccc1C(=O)Nc1c2c(nn1-c1cccc(C)c1C)CS(=O)(=O)C2	inconclusive [cytotoxic, single point]	–
COc1cccc(/C=N/Nc2nn3cnnc3c3ccccc23)c1O	inconclusive [cytotoxic, partial curve]	–
Cc1cccc2[nH]c(-c3ccc(NC(=O)c4ccco4)cc3)nc12	inconclusive [cytotoxic, single point]	–
COc1ccc(NC(=O)NNC(=O)c2ccc(-c3ccccc3)cc2)cc1	inconclusive [cytotoxic, single point]	–
COc1ccc(NC(=O)C2(C)Cc3c(-c4ccc(N(C)C)cc4)ccnc3O2)cn1 (stereo unspecified)	inconclusive [cytotoxic, single point]	–
Oc1c(Cl)cc(Cl)cc1/C=C/c1ccc2cccc(O)c2n1	inconclusive [cytotoxic, partial curve]	–
Cc1nc(NC(=O)c2oc3ccccc3c2C)sc1C(=O)N(C)C	inconclusive [cytotoxic, single point]	–
O=C(CSc1nc2ccc([N+](=O)[O-])cc2[nH]1)c1ccc2ccccc2c1	inconclusive [cytotoxic, single point]	–
c1ccc(CN2CCN(CCOCCOc3ccc4c(c3)CCC4)CC2)cc1	inconclusive [cytotoxic, single point]	–
O=S1(=O)CC(N2CCC(Cc3ccccc3)CC2)CN1Cc1ccc(F)cc1 (stereo unspecified)	inconclusive [cytotoxic, single point]	–
CCCC(=O)NC(=S)Nc1nc(-c2ccc(OC)cc2)cs1	inconclusive [cytotoxic, partial curve]	–
O=C(Nc1cnccn1)C1c2ccccc2Oc2ccccc21	inactive	–
CC/C(=N\Nc1ccccc1[N+](=O)[O-])c1ccc(O)cc1	active: 20.6 µM	–
O=C(NCCC(=O)N1CCc2ccccc21)c1ccco1	inactive	–
COc1cc(NC(=O)CSc2nc3[nH]ncc3c(=O)n2-c2ccc(Cl)cc2)cc(OC)c1	inconclusive [cytotoxic, single point]	–
O=[N+]([O-])c1ccc(NS(=O)(=O)N2CCOCC2)cc1	inactive	–
O=C(O)c1ccc(-n2ncc3c2/C(=C\c2cccc([N+](=O)[O-])c2)CC3)cc1	inactive	–
COc1ccc(C)cc1NC(=O)CSc1nc2scc(C)c2c(=O)[nH]1	inconclusive [cytotoxic, single point]	–

Compound	Potency	activity, negative = toxicity
COc1cccc(/C=C/C(=O)c2ccc(NS(=O)(=O)c3ccc(C)cc3)cc2)c1	inconclusive [cytotoxic, single point]	–
Cc1cccc(C2CC3(CC(C)(C)NC(=S)N3)Oc3cc(O)ccc32)c1 (stereo unspecified)	inactive	–
Cc1ccc(S(=O)(=O)N2c3ccccc3OCC2C(C)(C)C)cc1 (stereo unspecified)	inconclusive [cytotoxic, single point]	–
Oc1ccc(Br)cc1-c1ccnn1-c1ccccc1	active: 7.31 µM	–
COc1ccccc1CNc1nc2cc(-c3ccsc3)sc2c(=O)n1C	inconclusive [cytotoxic, single point]	–
O=C(NCCN1CCOCC1)c1cccc(NS(=O)(=O)c2ccc(Br)cc2)c1	inactive	–
CC1(C(=O)Nc2ccc3c(c2)OCO3)CCN1Cc1csc2ccccc12 (stereo unspecified)	inconclusive [cytotoxic, single point]	–
O=C(CN1CCCc2ccccc21)N/N=C/c1ccc(O)cc1O	inconclusive [cytotoxic, partial curve]	–
CCOc1ccc(OCCOC(=O)C2CCN(S(=O)(=O)c3ccc(C)c(C)c3)CC2)cc1	inactive	–
O=C(c1cccc(Cl)c1)N1CCN(c2ncccn2)CC1	inconclusive [rising, single point]	–
Cc1ccc(CNC(=O)C2(C)CCN2C(=O)Cc2ccc(C(C)(C)C)cc2)cc1 (stereo unspecified)	inconclusive [cytotoxic, single point]	–
O=C(Nc1c(C(=O)c2ccccc2)oc2ccccc12)c1cc(-c2ccccc2O)n[nH]1	active: 18.4 µM	–
O=C(NNC1=C(C(=O)C(F)(F)F)CCC1)c1ccc(Br)cc1	active: 10 µM	–
Cc1ccc(NC(=O)c2noc(C(C)C)c2[N+](=O)[O-])cc1	inconclusive [cytotoxic, single point]	–
O=C(c1ccccc1)c1ccc(OCCOCCN2CCN(Cc3ccccc3)CC2)cc1	inconclusive [cytotoxic, single point]	–
N=c1oc2cc(O)ccc2cc1C(=O)Nc1ccc(Cl)cc1	–	inconclusive: -17% [cytotoxic]
CC(OC(=O)C1CCCCC1)c1nc2ccccc2[nH]1 (stereo unspecified)	inactive	–
CC1=C(C(=O)OCc2ccc3c(c2)OCO3)C(c2ccc(Cl)cc2)NC(=O)N1 (stereo unspecified)	active: 2.24 µM	–
CCN(CC)CCn1c2ccccc2c2nc(C)sc21	inactive	–
CCc1cc(C(=O)NC2CCCc3c2cnn3-c2cccc(C)c2C)n(C)n1 (stereo unspecified)	inconclusive [cytotoxic, full curve]	–
C=CCOc1cccc(/C=C/c2nc3ccccc3c(=O)[nH]2)c1	inconclusive [cytotoxic, single point]	–
CCN(CC)c1nc2cc(C)ccc2cc1/C=C(\C#N)C(N)=O	inconclusive [cytotoxic, partial curve]	–
O=C(NCCc1ccccc1)C1(S(=O)(=O)c2ccc(Cl)cc2)CC1	inactive	–
